# Laboratory results: PMC9911399, “Two distinct binding modes provide the RNA-binding protein RbFox with extraordinary sequence specificity”
# Where a chain is given by its changes, count along the chain named. The list shows a part of the results.
# T1: RBFOX1 RRM RbFoxmut (Fox-RRM*) (Homo sapiens, UniProt Q9NWB1 109-208, R118D;E147R;N151S;E152T)
# T1 sequence: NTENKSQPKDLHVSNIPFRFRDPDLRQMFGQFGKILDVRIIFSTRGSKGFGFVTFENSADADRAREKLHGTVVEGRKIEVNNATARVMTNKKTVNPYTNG
# B1: ACUGUCC (DNA:RNA)
# RNA: GGGAGACCGGAAUUCAGAUUGUCCACUGUCCUUAAAUCCCGUCGUAGCCACCA
# DNA 1: CAATCTGAATTCCGGTCTCCC
# DNA 2: TGGTGGCTACGACGGGATT
# B2: UAUAUCG (DNA:RNA)
# RNA: B1 RNA with A25U, C26A, G28A, C31G
# DNA 1: CAATCTGAATTCCGGTCTCCC
# DNA 2: TGGTGGCTACGACGGGATT
# B3: UUGUAGG (DNA:RNA)
# RNA: GGGAGACCGGAAUUCAGAUUGUCCUUGUAGGUUAAAUCCCGUCGUAGCCACCA
# DNA 1: CAATCTGAATTCCGGTCTCCC
# DNA 2: TGGTGGCTACGACGGGATT
# B4: UAAGUUA (DNA:RNA)
# RNA: B1 RNA with A25U, C26A, U27A, C30U, C31A
# DNA 1: CAATCTGAATTCCGGTCTCCC
# DNA 2: TGGTGGCTACGACGGGATT
# B5: UAAGGGC (DNA:RNA)
# RNA: B1 RNA with A25U, C26A, U27A, U29G, C30G
# DNA 1: CAATCTGAATTCCGGTCTCCC
# DNA 2: TGGTGGCTACGACGGGATT
# B6: CAACCCG (DNA:RNA)
# RNA: B1 RNA with A25C, C26A, U27A, G28C, U29C, C31G
# DNA 1: CAATCTGAATTCCGGTCTCCC
# DNA 2: TGGTGGCTACGACGGGATT
# B7: CUGGUAA (DNA:RNA)
# RNA: B1 RNA with A25C, C26U, U27G, C30A, C31A
# DNA 1: CAATCTGAATTCCGGTCTCCC
# DNA 2: TGGTGGCTACGACGGGATT
# B8: UCUUAGC (DNA:RNA)
# RNA: B3 RNA with U26C, G27U, G31C
# DNA 1: CAATCTGAATTCCGGTCTCCC
# DNA 2: TGGTGGCTACGACGGGATT
# B9: AGCGAUC (DNA:RNA)
# RNA: B1 RNA with C26G, U27C, U29A, C30U
# DNA 1: CAATCTGAATTCCGGTCTCCC
# DNA 2: TGGTGGCTACGACGGGATT
# B10: ACGGUAC (DNA:RNA)
# RNA: B1 RNA with U27G, C30A
# DNA 1: CAATCTGAATTCCGGTCTCCC
# DNA 2: TGGTGGCTACGACGGGATT
# B11: UAAAUGG (DNA:RNA)
# RNA: B3 RNA with U26A, G27A, U28A, A29U
# DNA 1: CAATCTGAATTCCGGTCTCCC
# DNA 2: TGGTGGCTACGACGGGATT
# B12: GCCUGAG (DNA:RNA)
# RNA: B3 RNA with U25G, U26C, G27C, A29G, G30A
# DNA 1: CAATCTGAATTCCGGTCTCCC
# DNA 2: TGGTGGCTACGACGGGATT
# B13: CUAGACC (DNA:RNA)
# RNA: B1 RNA with A25C, C26U, U27A, U29A
# DNA 1: CAATCTGAATTCCGGTCTCCC
# DNA 2: TGGTGGCTACGACGGGATT
# B14: GUUGGAA (DNA:RNA)
# RNA: B1 RNA with A25G, C26U, U29G, C30A, C31A
# DNA 1: CAATCTGAATTCCGGTCTCCC
# DNA 2: TGGTGGCTACGACGGGATT
# B15: UAUAGGC (DNA:RNA)
# RNA: B1 RNA with A25U, C26A, G28A, U29G, C30G
# DNA 1: CAATCTGAATTCCGGTCTCCC
# DNA 2: TGGTGGCTACGACGGGATT
# B16: CCGGCCA (DNA:RNA)
# RNA: B1 RNA with A25C, U27G, U29C, C31A
# DNA 1: CAATCTGAATTCCGGTCTCCC
# DNA 2: TGGTGGCTACGACGGGATT
# B17: AAGGAGU (DNA:RNA)
# RNA: B3 RNA with U25A, U26A, U28G, G31U
# DNA 1: CAATCTGAATTCCGGTCTCCC
# DNA 2: TGGTGGCTACGACGGGATT
# B18: AUUAUCC (DNA:RNA)
# RNA: B1 RNA with C26U, G28A
# DNA 1: CAATCTGAATTCCGGTCTCCC
# DNA 2: TGGTGGCTACGACGGGATT
# B19: CCCCUCU (DNA:RNA)
# RNA: B1 RNA with A25C, U27C, G28C, C31U
# DNA 1: CAATCTGAATTCCGGTCTCCC
# DNA 2: TGGTGGCTACGACGGGATT
# B20: CAGUUUG (DNA:RNA)
# RNA: B3 RNA with U25C, U26A, A29U, G30U
# DNA 1: CAATCTGAATTCCGGTCTCCC
# DNA 2: TGGTGGCTACGACGGGATT
# B21: UCUAGCA (DNA:RNA)
# RNA: B1 RNA with A25U, G28A, U29G, C31A
# DNA 1: CAATCTGAATTCCGGTCTCCC
# DNA 2: TGGTGGCTACGACGGGATT
# B22: UGUAAAC (DNA:RNA)
# RNA: B1 RNA with A25U, C26G, G28A, U29A, C30A
# DNA 1: CAATCTGAATTCCGGTCTCCC
# DNA 2: TGGTGGCTACGACGGGATT
# B23: UUUCCGA (DNA:RNA)
# RNA: B3 RNA with G27U, U28C, A29C, G31A
# DNA 1: CAATCTGAATTCCGGTCTCCC
# DNA 2: TGGTGGCTACGACGGGATT
# B24: CUGAUUG (DNA:RNA)
# RNA: B3 RNA with U25C, U28A, A29U, G30U
# DNA 1: CAATCTGAATTCCGGTCTCCC
# DNA 2: TGGTGGCTACGACGGGATT
# B25: UCUAAUG (DNA:RNA)
# RNA: B3 RNA with U26C, G27U, U28A, G30U
# DNA 1: CAATCTGAATTCCGGTCTCCC
# DNA 2: TGGTGGCTACGACGGGATT
# B26: CGAGCCG (DNA:RNA)
# RNA: B1 RNA with A25C, C26G, U27A, U29C, C31G
# DNA 1: CAATCTGAATTCCGGTCTCCC
# DNA 2: TGGTGGCTACGACGGGATT
# B27: GAGUAAU (DNA:RNA)
# RNA: B3 RNA with U25G, U26A, G30A, G31U
# DNA 1: CAATCTGAATTCCGGTCTCCC
# DNA 2: TGGTGGCTACGACGGGATT
# B28: CCGGCGG (DNA:RNA)
# RNA: B3 RNA with U25C, U26C, U28G, A29C
# DNA 1: CAATCTGAATTCCGGTCTCCC
# DNA 2: TGGTGGCTACGACGGGATT
# B29: UACCAAU (DNA:RNA)
# RNA: B3 RNA with U26A, G27C, U28C, G30A, G31U
# DNA 1: CAATCTGAATTCCGGTCTCCC
# DNA 2: TGGTGGCTACGACGGGATT
# B30: UCUAGUA (DNA:RNA)
# RNA: B1 RNA with A25U, G28A, U29G, C30U, C31A
# DNA 1: CAATCTGAATTCCGGTCTCCC
# DNA 2: TGGTGGCTACGACGGGATT
# B31: UUCCCGC (DNA:RNA)
# RNA: B3 RNA with G27C, U28C, A29C, G31C
# DNA 1: CAATCTGAATTCCGGTCTCCC
# DNA 2: TGGTGGCTACGACGGGATT
# Target: T1, RBFOX1 RRM RbFoxmut (Fox-RRM*)
# Assay: EMSA; HiTS-Eq, 1 nM pool, 10 min; buffer printed only for the single-RNA assays: 10 mM Tris pH 7.5, 150 mM NaCl, 3.4 mM EDTA, 0.001% NP-40, 30 C
# Details: tags: His6 N-terminal (pET28a); label: 5' 32P
# In short: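 Purified RbFox RRM (wild type or mutant) was equilibrated for 10 min in 50 µL with 1 nM of a 5′-radiolabelled pool of RNA with 7 randomized nucleotides, its flanks annealed to DNA oligonucleotides, across increasing protein concentrations. Free RNA was separated by 8% native PAGE, excised, reverse-transcribed, PCR-barcoded and sequenced on an Illumina HiSeq 2500. Relative association constants came from read-count changes of each variant against the control reaction, normalised to the cognate motif.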
row,Binder,binding signal
1,B1,0.0738 KA relative to UGCAUGU
2,B2,0.0776 KA relative to UGCAUGU
3,B3,0.108 KA relative to UGCAUGU
4,B4,0.115 KA relative to UGCAUGU
5,B5,0.0666 KA relative to UGCAUGU
6,B6,0.0827 KA relative to UGCAUGU
7,B7,0.121 KA relative to UGCAUGU
8,B8,0.117 KA relative to UGCAUGU
9,B9,0.0635 KA relative to UGCAUGU
10,B10,0.121 KA relative to UGCAUGU
11,B11,0.0657 KA relative to UGCAUGU
12,B12,0.174 KA relative to UGCAUGU
13,B13,0.044 KA relative to UGCAUGU
14,B14,0.125 KA relative to UGCAUGU
15,B15,0.121 KA relative to UGCAUGU
16,B16,0.0587 KA relative to UGCAUGU

row,Binder,binding signal
1,B17,0.103 KA relative to UGCAUGU
2,B18,0.0569 KA relative to UGCAUGU
3,B19,0.0516 KA relative to UGCAUGU
4,B20,0.248 KA relative to UGCAUGU
5,B21,0.111 KA relative to UGCAUGU
6,B22,0.0616 KA relative to UGCAUGU
7,B23,0.0707 KA relative to UGCAUGU
8,B24,0.234 KA relative to UGCAUGU
9,B25,0.127 KA relative to UGCAUGU
10,B26,0.102 KA relative to UGCAUGU
11,B27,0.114 KA relative to UGCAUGU
12,B28,0.102 KA relative to UGCAUGU
13,B29,0.0762 KA relative to UGCAUGU
14,B30,0.12 KA relative to UGCAUGU
15,B31,0.0732 KA relative to UGCAUGU
